This is one part of the list.

For this assay, the system named is PfSIP2 AP2 domain 1 (GST-tagged). Nature of the assay: gcPBM binding intensity (ln(normalized median fluorescence intensity)); higher = stronger DNA binding. In short, it runs like this:
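GST-tagged P. falciparum DNA-binding domains produced in E. coli were incubated for 1 h on an Agilent 4 × 180k array of primer-extended double-stranded 36-bp intergenic genomic probes with negative controls. Binding intensity is the highest Masliner-normalised natural-log median intensity across replicate spots of either probe orientation, with bound protein detected by Alexa488 anti-GST antibody at 488 nm.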
As for “CATATTTCTTACATTTGTACTTAATAAAATTAATCA [XGTACX_site7224]”, the “gcPBM binding intensity (ln)” value was found to be 7.21.

“AAAAAAATTTATAAATATTTTATTAATATATTTACC [GTGCAC_negctrl_site690]”: the “gcPBM binding intensity (ln)” value turned out to be 7.14.

Consider “ACACAAAACAAAAAGGTGCTGTATAAATGGGTGTAT [GTGCAC_site9905]”, for which the “gcPBM binding intensity (ln)” value was 7.91. On to “TTTTTATACAACTTATAATACATCTGAAAATATAAA [XGTACX_negctrl_site36]”, for which the “gcPBM binding intensity (ln)” value was found to be 6.84. For “TTGTCTGACTAATTTTTTTCTGTTTGTACGTTCTTA [GTGCAC_negctrl_site602]” the value was 6.81; for “TATCACATATTATGATGTACAAGGTTTCTGACTAAT [XGTACX_site2763]”, 6.96; for “ACAAAATAAATATGAACACACACATTTATGCCTTTA [CACACA_site8346]”, 6.82.

For “ATAATTATACATATTACACACTCTCTTGATCTTTTT [CACACA_site3853]”, the “gcPBM binding intensity (ln)” value is 7.13. For “AATTAAATATTATAAACACACATATAGATTATTTTT [CACACA_site6538]” the value was 6.88. Regarding “ATTTTAAATATGGAATGTACTTAAAAAAAATTTCAT [XGTACX_site5058]”, the “gcPBM binding intensity (ln)” value came to 6.92. With “ATTTCTTATTAAATTACACACAAAGTAAATAAATCT [CACACA_site3924]” the figure was 6.84; with “TTTTCCTTTTTTTTTACATGCAGATATAGAAAGGTA [TGCATGCA_site106]”, 7.08; with “TTGTTTTGGATTATCACACATATAATATATACTCAT [CACACA_site4780]”, 7.15. For “AAATACATAACTTAAAATTTGTTCATATCTATACAT [TGCATGCA_negctrl_site249]” the value was 6.94; for “TATAATAATATGGATTGTACATATATATTTAATTAA [XGTACX_site4327]”, 6.98; for “GTAATTTTTTTCTATACACACATATCTATAATATAT [CACACA_site7284]”, 7.08. With “TACTTATAATTTCAATGTACATATATATAATATCAT [XGTACX_site2424]”, the “gcPBM binding intensity (ln)” value came to 7.15. In the case of “AACACCCATGGACACACACACATATATATATATATA [CACACA_site5809]”, the “gcPBM binding intensity (ln)” value amounted to 9.43. For “TTTTTATAAGCATAAAGTACAAATATTTTTTAGTTG [XGTACX_site4140]” the value was 7.19; for “TAAATCCGTTTGATGGGTACATACATACATACATAT [XGTACX_site8889]”, 7.01; for “ACAATAAAATATGGCACACATATATATATATATTTA [CACACA_site3]”, 7.21. For the sequence “ATTTATTTTAGTAAAGCACACGTGTAAAATATATCT [CACACA_site4820]”, the “gcPBM binding intensity (ln)” value was found to be 6.99. Consider “TCTTTTTTGAACTAGCGTACATGAAAATATTTATAG [XGTACX_site7359]”, for which the “gcPBM binding intensity (ln)” value came out at 7.24. For “TTATTACATATAAAGGAAAATAGCATCTAGATTAAA [XGTACX_negctrl_site435]” the value was 6.71; for “TTTTTATTTATATATAAGGAAAATGCGGTATATATT [CACACA_negctrl_site1770]”, 7.38; for “AAAAAAAAAAAAAAAAAATACATATACATTTGTGCA [CACACA_negctrl_site1431]”, 7.9. For “TATATGTATTTATATACACACATATTCTTTTTACAC [CACACA_site8320]” the value was 7.12. With “TCCTTTTCATCTTGTAGTACGGAAATGTAGCTCCAA [XGTACX_site8563]” the figure was 6.98; with “AATATTTTGAACAACAGTACTCTTTCTTTCTTTCTT [XGTACX_site7212]”, 6.55; with “TATATCTACTTAAAAAGTACGTAAATTATAAGCTAT [XGTACX_site6420]”, 6.9.

“TGTGTAAATATGTATACACACATATCTGATCAATAT [CACACA_site7507]”: the “gcPBM binding intensity (ln)” value is 6.82. In the case of “TATGTATAACTCAATGCATGCGAAGGACTATTATTT [TGCATGCA_site222]”, the “gcPBM binding intensity (ln)” value was 6.85.

On to AATATTGTTCACAAGGTGCTTTTTATTCATACTAAT, for which the “gcPBM binding intensity (ln)” value was 7.62. With “ACCTCACAAATGAATACACACAAACATATAGATTTA [CACACA_site6862]” the figure was 7.19; with “ATATATAAAATTATATGTACATATATCTATTTATAA [XGTACX_site3713]”, 6.93. As for “GATTAAAACTTTAACTGTACATAATAATTATCAATC [XGTACX_site5938]”, the “gcPBM binding intensity (ln)” value was determined as 7.13. “TTTAAAATTTCTTAATGTACGTAATAAAAAAAAAAA [XGTACX_site4037]”: the “gcPBM binding intensity (ln)” value was 7.08. With “AAAATTTAAAAATGGACACACACAAAAAATAATACT [CACACA_site7972]” the figure was 7.32; with “AACTTTTTACAAACAGGTACGCATATATATATATAT [XGTACX_site5081]”, 8.9. “AATAATTATTTGTATAGTACAATATACAAAAGATGA [XGTACX_site4312]”: the “gcPBM binding intensity (ln)” value was found to be 7.07. With “CACATACACATACAAACACACATTATATATATATAT [CACACA_site8460]” the figure was 9.36. Take “CATCCATTATTAATATGTACATATGTATATATATTA [XGTACX_site1318]”: the “gcPBM binding intensity (ln)” value turned out to be 7.16. With “GAAAAAAAAAAAAGGGGTACATTTATTTTATCAATA [XGTACX_site8331]” the figure was 6.76. For the sequence “TTTTTTTTTTTTTTTTTTTTTTTCTTTATTTTTTTT [CACACA_negctrl_site703]”, the “gcPBM binding intensity (ln)” value was 6.83. On to “AAAATTAATAAATAAACACACATATTTATATTTATA [CACACA_site7266]”, for which the “gcPBM binding intensity (ln)” value was found to be 6.74.

As to “TATAAATATAGACACACACACACACCGAAGCGTAGC [CACACA_site6180]”, the “gcPBM binding intensity (ln)” value amounted to 6.8. For “TCGTCACTTTAATATTGTACATATATATATATATAT [XGTACX_site8046]” the value was 9.7; for “ATATATATATGTGCCAGTACACATGTATACATTATA [XGTACX_site3899]”, 8.67; for “GATATATATATTCACACACACATGGAAATATATATA [CACACA_site382]”, 7. With “ACAGAAAAAAGACACACACACATAATATACATACAT [CACACA_site6991]” the figure was 7.37; with “ATTTTTTAAATGAGGCGTACACAAAAATATAATTAC [XGTACX_site7087]”, 7.6. With “CTTAGATATAAAAATTGTACATACATATTTTTGACA [XGTACX_site2107]” the figure was 7.03; with “TATATATATATATATACACACACACTAATAAAAAAA [CACACA_site8426]”, 9.24; with “TTTTTTTCGTAAAAAAAAATAATTATTAAATGAAGG [TGCATGCA_negctrl_site212]”, 7.09.

In the case of “TAAACACCCATATAAACACACATATAAACACCCATA [CACACA_site5382]”, the “gcPBM binding intensity (ln)” value is 7.06.

“TTTATTTATTTTTAACGTACGCACACATATAAATAT [XGTACX_site4042]”: the “gcPBM binding intensity (ln)” value stood at 7.54.

Regarding “TATTATAAAATATACACATGCAAAAACAAAATTTAC [TGCATGCA_site1051]”, the “gcPBM binding intensity (ln)” value was 7.26. Consider “TATTTTTAATAAAAACGTACGGAATACAAAAAAAAT [XGTACX_site3477]”, for which the “gcPBM binding intensity (ln)” value turned out to be 7.38. Turning to “TATATACATTGGTATACATGCATTCTCTTTCATACA [TGCATGCA_site734]”, the “gcPBM binding intensity (ln)” value amounted to 6.88. As for “TAAAATTTATAAACTACACACATATAAATAGTAATA [CACACA_site7708]”, the “gcPBM binding intensity (ln)” value was 6.81. Turning to “TTAAACATATATTAAGCACACACAAACAAAAAAACA [CACACA_site8816]”, the “gcPBM binding intensity (ln)” value stood at 7.3. For “AACATATTTTTTTGTTGTACTTACAATTATAAGCAT [XGTACX_site3056]” the value was 6.9. As for “TATACCAAATATATGGGTACACAAATATGTTTATTC [XGTACX_site8932]”, the “gcPBM binding intensity (ln)” value is 6.9.

Take “TAATTAATCGATTTACGCACATGAACAAAAGCACAT [CACACA_negctrl_site1287]”: the “gcPBM binding intensity (ln)” value came to 7.09.

As for “TATAAAGCAACTGAAACACACAAATTTTTTTTTTTT [CACACA_site3218]”, the “gcPBM binding intensity (ln)” value worked out at 6.76.

Regarding “ACTATTTTCTTCAAAACATGCACCACATAAACATAA [TGCATGCA_site200]”, the “gcPBM binding intensity (ln)” value came out at 10.5.

For ATTATTTATTTATGTGTGCGCATGTGTGTAAATATT, the “gcPBM binding intensity (ln)” value is 8.85.

As to “GTAAATATTAATAAAAGTACATATGTAGCATATGGA [XGTACX_site5219]”, the “gcPBM binding intensity (ln)” value amounted to 7.09. “CCTTTTTTATTTACAACACACGTAAAGGTTCAAATA [CACACA_site1741]”: the “gcPBM binding intensity (ln)” value is 7.39. Consider “AGAAAAAAAAAAAATGCACACATTTTCATTGTCAGT [CACACA_site1935]”, for which the “gcPBM binding intensity (ln)” value was found to be 7.

With “ATATATATATATATGTGTACATATTTTTTTTTTTTT [XGTACX_site3425]”, the “gcPBM binding intensity (ln)” value came out at 9.26. “AAAAAACACAGACATACACACAAAAAGGTTATAAAT [CACACA_site4222]”: the “gcPBM binding intensity (ln)” value amounted to 6.91. On to “CATATCTCTTATTAATGTACATTTTTAAAAGTAAAT [XGTACX_site2847]”, for which the “gcPBM binding intensity (ln)” value worked out at 7.15. With “CTTTTTTTTATGAACAGTACAGAAATATATATATAC [XGTACX_site5613]” the figure was 7.13. For “TTTATATAATGGAAAAGTACTCAGGAAATTTATACA [XGTACX_site3635]” the value was 7.3. As to “CAAGAACAAAAAATATGTACATATAATTATATATAT [XGTACX_site2082]”, the “gcPBM binding intensity (ln)” value was 7.75.

Regarding “TTAAAATTAAAAATAGGTACACATATGAACAAGGAC [XGTACX_site1180]”, the “gcPBM binding intensity (ln)” value came out at 7.82. Consider “TTATATGATATATGACGTACATATTAATAACATCTA [XGTACX_site6716]”, for which the “gcPBM binding intensity (ln)” value stood at 7.2. Regarding “TGTAATATTTTATAAAGTACATTATAATATAATTCA [XGTACX_site2961]”, the “gcPBM binding intensity (ln)” value was 6.97. For “TTGTTCCAATAAAATCGTACAATTAAACAACCAAAC [XGTACX_site5759]” the value was 7.28; for “TTTTTTTCTATAATACACCAGAAAAAAAAATTAAAA [TGCATGCA_negctrl_site257]”, 6.96.

As for “AGATTGAAATATAGTTGTACAAATATTTTAAAACAT [XGTACX_site3026]”, the “gcPBM binding intensity (ln)” value came out at 7.08. “CAATCAACAAAACATACACACACATATATATATATA [CACACA_site8979]”: the “gcPBM binding intensity (ln)” value came to 9.32.

Turning to “TAATTATAAAAATAAAACAACCAAATTTGTTATATA [CACACA_negctrl_site750]”, the “gcPBM binding intensity (ln)” value came out at 6.78. “TAATTTATAAATAATTGTACATAGTTTATTTAGATT [XGTACX_site4599]”: the “gcPBM binding intensity (ln)” value came out at 6.86.

Take “ATATATATAAAATAAAGTACCCGTAAAACCTATATG [XGTACX_site6937]”: the “gcPBM binding intensity (ln)” value is 7.36. In the case of “AAAAAAAAAAAAAAAAAATAATAAAAAATAAAAAAA [GTGCAC_negctrl_site341]”, the “gcPBM binding intensity (ln)” value is 7.55.

As to “GACGACTATATTAATTGTACTCAATTTAAGCATAAT [XGTACX_site2750]”, the “gcPBM binding intensity (ln)” value worked out at 7.1.

The values are drawn from the supplement of paper PMC11417369.
